Molecules are shown by their SMILES.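 Dose response: 5 concentrations. Exposure: 48 h. Format: 96-well plates. Endpoint: linear interpolation; highest concentration if not reached. The concentration for 50% growth inhibition is given as GI50.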 The source made the active and inactive calls. Cut-off read from the data, not from the text of the source: active = GI50 up to about 1.1 µM and inactive = higher.

This test relates to NCI-H322M. The test is described as follows: growth of human tumour cells (NCI), 48 h.
In the case of `CC(=O)c1ccc(Oc2c3ccccc3nc3ccccc23)cc1`, the GI50 is inactive: 18.4 µM.

Take `O=C(c1nsc(Cl)c1Cl)N1CCCCC1`: the GI50 was inactive: > 100 µM. As for `O=C(NO)c1ccc([N+](=O)[O-])cc1`, the figure is inactive: 42.3 µM; as for `Cc1ccc(/N=N/c2c(O)ccc3ccccc23)c(C)c1`, inactive: > 100 µM; as for `COc1ccc2oc(-c3ccncc3)cc(=O)c2c1`, inactive: > 100 µM.

With `Cc1nnc2ccccc2c1O`, the GI50 was inactive: > 100 µM. In the case of `CC(C)(C)OC(=O)C1/C(=C/CO)CN1C(=O)OC(C)(C)C` (stereo unspecified) it was inactive: > 100 µM; in that of `Oc1c(-c2ccccc2)sc2ccccc12`, inactive: 19.8 µM; in that of `O=C(Nc1ccc2ccccc2c1)c1cc2cc(CCl)ccc2oc1=O`, inactive: > 100 µM. `[N-]=[N+]=Nc1c(Cl)c(=O)n(-c2ccccc2)c2ccccc12`: the GI50 is inactive: 24.8 µM. Consider `CC1=C(C(N)=O)C(c2ccncc2)C(C#N)=C2SCC(=O)N12` (stereo unspecified), for which the GI50 was inactive: > 100 µM. Regarding `NC(=O)NNC(=O)c1nc[nH]c1[N+](=O)[O-]`, the GI50 was inactive: > 100 µM. As for `COc1ccc(/C=C2/C[N+](C)(C)C/C(=C/c3ccc(OC)cc3)C2=O)cc1`, the figure is inactive: > 100 µM; as for `CC(C)(C)C(=O)OCC1CCC[N+]2(C)CCCCC12` (stereo unspecified), inactive: > 100 µM; as for `CN1C2=Nc3n(C)c4ccccc4[n+]3CN2c2ccccc21`, inactive: 71.1 µM.

On to `COc1ccc(C(SCC(N)C(=O)O)(c2ccc(OC)cc2)c2ccc(OC)cc2)cc1` (stereo unspecified), for which the GI50 was inactive: 14.7 µM. In the case of `CCOC(=O)/C=C/c1nc(C#N)c(N)o1` it was inactive: > 100 µM; in that of `c1ccc(N2N=NC3C4CC(C5c6ccccc6C45)C32)cc1` (stereo unspecified), inactive: 59.7 µM; in that of `O=[N+]([O-])c1cccc(C2=NOC3CCCC23)c1` (stereo unspecified), inactive: > 100 µM.

For the compound `COC(=O)[C@@H]1C[C@H]([Se]c2ccccc2)CN1C(=O)OCc1ccccc1`, the GI50 was inactive: > 100 µM. For `CC(=O)OC1CC[C@@]2(C)C(=CC[C@@H]3[C@@H]2CC[C@]2(C)Nc4c(cnn4-c4ccc(F)cc4)C[C@@H]32)C1` (stereo partly specified), the GI50 was inactive: 14 µM. On to `S=C(Nc1ccc(Br)cn1)NC12CC3CC(CC(C3)C1)C2`, for which the GI50 is inactive: 15.5 µM. Consider `COc1ccc(C2C=C(c3ccc(C)cc3)N(c3ccc(OC)cc3[N+](=O)[O-])C3C(=O)OC(=O)C23)c(OC)c1` (stereo unspecified), for which the GI50 is inactive: 30.1 µM. As for `COC(=O)c1ccc(C)cc1CC1Cc2ccc(C)cc2C1=O` (stereo unspecified), the figure is inactive: 35.1 µM. As for `Cc1ccc(C2NC(=N)NC3=C2CCOc2c3ccc3ccccc23)cc1` (stereo unspecified), the figure is inactive: 38.6 µM; as for `O=C(CC(=O)N1N=C(N2CCCCC2)CC1c1ccccc1)Nc1ccc(Cl)cc1` (stereo unspecified), inactive: > 100 µM; as for `O=C1/C(=C\Oc2ccc(F)cc2)N2CCC1CC2`, inactive: 62.8 µM. As for `c1ccc(Nc2nnc(-c3ccccc3Nc3ccccc3-c3nnc(Nc4ccccc4)s3)s2)cc1`, the figure is inactive: > 100 µM; as for `Cc1cc(C)n(CN(Cn2nc(C)cc2C)c2ccccc2)n1`, inactive: > 100 µM; as for `Cc1ccc([N+](=O)[O-])cc1S(=O)(=O)Nc1ccc(C2=NN(c3ccc([N+](=O)[O-])cc3[N+](=O)[O-])C(c3ccccc3O)C2)cc1` (stereo unspecified), inactive: 52.4 µM. For the compound `O=C1c2ccccc2-c2c1c1ccccc1c(=O)n2Cc1ccco1`, the GI50 was inactive: > 100 µM. In the case of `C=CCC1(O)c2ccccc2C(=O)c2c(O)ccc(O)c21` (stereo unspecified) it was inactive: 19 µM; in that of `COc1ccc(S(=O)(=O)N/N=C/CN2C(=O)c3ccccc3C2=O)cc1`, inactive: > 100 µM. As for `C/C(=N\Nc1ncnc2ccccc12)c1ccccn1`, the GI50 was active: < 0.0193 µM. With `Cc1nn(C(=O)Cc2ccccc2)c2c1C(c1ccc(Cl)cc1)SC(=N)N2` (stereo unspecified), the GI50 was inactive: > 100 µM. As for `C=CCNC(=O)NNC(O)(C(=O)OCC)C(F)(F)F` (stereo unspecified), the figure is inactive: > 100 µM; as for `CC1=NN(c2cccc(S(=O)(=O)O)c2)C2(C1)C(Cl)C(=O)N2c1nc2ccccc2s1` (stereo unspecified), inactive: 13.4 µM.

As for `O=C(O)C1C(=O)Oc2c(cccc2[N+](=O)[O-])C1O` (stereo unspecified), the GI50 was inactive: > 100 µM. In the case of `COC(=O)C1C(O)C(C)C(O)C(C)C=C(C)C2=C3C(=C(C)C(=O)c4c(O)c(c(C)c(OC(C)=O)c43)NC(=O)C(C)=C/C=C\C(C)C(O)C(C)C1O)OCO2` (stereo unspecified) it was inactive: 49.1 µM; in that of `O=C(O)C1=C(CO)Oc2cc3c(cc2C1c1ccc2c(c1)OCO2)OCO3` (stereo unspecified), inactive: > 100 µM. As for `C=CC(Cl)(CBr)CCC(Br)=C(C)C` (stereo unspecified), the figure is inactive: 60.3 µM; as for `O=S1(=O)C(=C(c2ccccc2)c2ccccc2)S(=O)(=O)c2ccccc21`, inactive: > 100 µM. Regarding `Cc1cccc(C(C)(C)C)c1NC(=O)CC1Sc2ccccc2NC1=O` (stereo unspecified), the GI50 was inactive: > 100 µM. In the case of `C=C1C[C@]23CC[C@@H]4C(CO)(CO)CC(=O)C[C@]4(C)[C@@H]2C(O)C[C@H]1C3` (stereo partly specified) it was inactive: > 100 µM. As for `O=C1CCSC(=S)N1c1ccc(Br)c(Cl)c1`, the figure is inactive: 35.2 µM. As for `N#CC(=S)Nc1ccc(F)cc1`, the figure is inactive: 75.9 µM. Consider `Cn1ccnc1Sc1ccc(/C=N/NC(=O)c2ccccc2[N+](=O)[O-])cc1[N+](=O)[O-]`, for which the GI50 was inactive: 74 µM. In the case of `Cc1ccc(/N=N/c2c(C)nn(C(=O)CC(=O)Nc3ccc(Cl)cc3)c2C)cc1C` it was inactive: > 100 µM. As for `Clc1ccc2[nH]c(CCSCCc3nc4ccc(Cl)cc4[nH]3)nc2c1`, the figure is active: 0.75 µM. With `CC(Cl)(CCC(Cl)C(C)(C)Cl)C(=O)CBr` (stereo unspecified), the GI50 is inactive: 22.7 µM. As for `Cc1ccc(NC(=O)CSc2nc(C)nc3c2sc(=S)n3-c2ccccc2)cc1`, the figure is inactive: > 10 µM. Regarding `Cc1ccc(O)c(C(c2ccc([N+](=O)[O-])cc2)c2cc(C)ccc2O)c1`, the GI50 was inactive: 18.6 µM. In the case of `CCOc1c2c(cc3c1C(=O)c1c(OC)cccc1C3=O)C=C(OC)CC2` it was inactive: > 25 µM; in that of `Cc1c2cc[n+](COC(=O)c3ccccc3)cc2c(C)c2c1[nH]c1ccccc12`, active: 0.449 µM. Consider `Cc1cccc(NC(Nc2cccc(C)c2)=C(C(Cl)=C(Cl)Cl)[N+](=O)[O-])c1`, for which the GI50 is inactive: 23.7 µM. As for `CC(NC(=O)NC(C)(C)C)NC(=O)C(N)CC(=O)O` (stereo unspecified), the figure is inactive: > 100 µM. For the compound `N=C(N)SCCc1cn2ccccc2n1`, the GI50 was inactive: > 100 µM. In the case of `O=[N+]([O-])c1nccn1COCCO` it was inactive: > 100 µM. As to `COCC1N=C(c2cc(OC)c(OC)c(OC)c2-c2cc3c(cc2[C@H](C)O)OCO3)O[C@H]1c1ccccc1` (stereo partly specified), the GI50 is inactive: > 100 µM. Turning to `CC1(Cl)CCC2(CC(Br)=CC3OC32C)CC1Br` (stereo unspecified), the GI50 was inactive: 43.2 µM.

As to `c1ccc([P+](CCCCCCCC[P+](c2ccccc2)(c2ccccc2)c2ccccc2)(c2ccccc2)c2ccccc2)cc1`, the GI50 is inactive: 31.5 µM.

Source of the values: ChEMBL document CHEMBL1201862, “PubChem BioAssay data set” (2004).
